Measured values as given in patent publication US20170306038A1, “COMPOSITIONS AND METHODS OF USE FOR AUGMENTED IMMUNE RESPONSE AND CANCER THERAPY” (priority 2014, published 2017).

Target: T1, hGITR (Homo sapiens, UniProt Q9Y5U5)
T1 sequence (Q9Y5U5 26-241): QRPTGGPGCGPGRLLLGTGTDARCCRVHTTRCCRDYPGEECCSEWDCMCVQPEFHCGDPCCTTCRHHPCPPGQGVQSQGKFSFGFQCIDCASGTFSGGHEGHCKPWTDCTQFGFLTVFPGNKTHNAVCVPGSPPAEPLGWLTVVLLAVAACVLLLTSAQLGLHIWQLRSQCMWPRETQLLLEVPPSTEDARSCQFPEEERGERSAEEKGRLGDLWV
Test: NFκB-Luciferase reporter gene assay, 293 cells with human GITR
Type: cell-based
Parameters: expressed in transfected cells; host or cells: HEK-293 (293) cells
Conditions: antibodies crosslinked
Procedure: To generate the 293-hGITR-NFκB reporter gene cells line, 293 cells were stably transfected with an NFκB-Luciferase reporter gene and human GITR (or cyno GITR). Activation of the GITR signaling pathway in these cells was determined by measuring the levels of luciferase induced within the cells after a 24 hour incubation with GITR-L or agonistic antibody. To assess the effects of cross-linking Abs, they were incubated with an excess of a F(ab′)2 goat anti-human Fcγ fragment specific antibody or protein A before using in the reporter gene assay.
Functional activity of MABs were tested in an NFkB reporter gene assay for agonist activity. MAB was diluted to 6 μg/mL in PBS and incubated for 30 minutes at room temperature in the presence/absence of a 3 fold excess of F(ab′)2 fragment goat anti-human Fcγ specific crosslinker. Alternatively, MAB was diluted to 6 μg/mL in PBS and incubated for 30 minutes at room temperature in the presence/absence of a 2 fold excess of Protein A. 10 μL of incubated MAB was then added to a 384 well white clear bottomed assay plate. A HEK-293 cell line stably transfected with hGITR and a NFκB reporter gene was diluted to 5×10^5 cells/mL and 20 μL of the cell suspension was added to each well. The plate was incubated for 24 hours in a 37° C. tissue culture incubator. 30 μL of Cell Bright Glo was added to each well and the plate was read for luminescence on the Acquest.

B1: MAB7: MAB4 variant with glycation site KH changed to RH; heavy chain SEQ ID NO:100, light chain SEQ ID NO:66 (antibody)
heavy: EVQLVESGGGLVQSGGSLRLSCAASGFSLSSYGVDWVRQAPGKGLEWVGVIWGGGGTYYASSLMGRFTISRDNSKNTLYLQMNSLRAEDTAVYYCARHAYGHDGGFAMDYWGQGTLVTVSSASTKGPSVFPLAPSSKSTSGGTAALGCLVKDYFPEPVTVSWNSGALTSGVHTFPAVLQSSGLYSLSSVVTVPSSSLGTQTYICNVNHKPSNTKVDKRV[human IgG1 Fc not printed]
light: EIVMTQSPATLSVSPGERATLSCRASESVSSNVAWYQQRPGQAPRLLIYGASNRATGIPARFSGSGSGTDFTLTISRLEPEDFAVYYCGQSYSYPFTFGQGTKLEIKRTVAAPSVFIFPPSDEQLKSGTASVVCLLNNFYPREAKVQWKVDNALQSGNSQESVTEQDSKDSTYSLSSTLTLSKADYEKHKVYACEVTHQGLSSPVTKSFNRGEC
B1 was tested, and the “NFκB activity / intracellular signaling” value was “induce NFκB activity when crosslinked, at levels similar to GITR ligand”.
